Data from the supplement of paper PMC11417369.
± gives the standard deviation of the averaged measurements. The list shows a part of the results.

Test system: PfAP2-I AP2 domain 3 (GST-tagged)
Assay: gcPBM binding intensity (ln(normalized median fluorescence intensity)); higher = stronger DNA binding
Summary of the method: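 Binding of GST-tagged P. falciparum DNA-binding domains, expressed in E. coli and used at about 25 μg on average, was carried out for 1 h in 1× PBS containing 1% milk, 0.2 mg/ml BSA, 0.5% salmon testes DNA and 0.03% Triton X-100. The target was an Agilent 4 × 180k array of primer-extended double-stranded 36-bp intergenic genomic probes plus negative controls, read with Alexa488 anti-GST antibody at 488 nm. Binding intensity is the highest Masliner-normalised natural-log median intensity across replicate spots of either probe orientation.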

“TATATATGTATGTATGCATGCCCTTTTTTAAAAAAA [TGCATGCA_site434]” and “AAGAAAAAACAAACATGTACACATAATTTAGTTTTT [XGTACX_site3121]” are within error of each other in “gcPBM binding intensity (ln)” value: 8.04 ± 0.71 for the first, 7.79 ± 0.3 for the second.

“AATGTATTAAAATTACGTACATATGCACATTTTATA [XGTACX_site5046]” and “TACTCTTTCCAGAAGTGTACATAGAAATAATTACAT [XGTACX_site2668]” are within error of each other in “gcPBM binding intensity (ln)” value: 8.45 ± 0.36 for the first, 7.73 ± 0.58 for the second.

Going from “TTTTTTATTTTGTGCACACACATAAAAATATAAATA [CACACA_site6497]” to “TATAAATACATACATACACACATATATATATATATT [CACACA_site6116]”, the “gcPBM binding intensity (ln)” value falls from 11.01 ± 0.042 to 7.75 ± 0.38.

“TCCTAAAAAAAAAAAAAAAATGAAAAAGGAAAAAAA [CACACA_negctrl_site1646]” and “TAAAAATAATATATTTGTACATATGTGTATACATAA [XGTACX_site741]” are within error of each other in “gcPBM binding intensity (ln)” value: 7.33 ± 0.67 for the first, 7.62 ± 0.61 for the second.

“AAAAAAAAAAAAAAAAGTACTAAATGTAAAAGAATA [XGTACX_site2164]” and “CAAGCACAGAAACACACACACACACCGACACAGACA [CACACA_site4359]” are within error of each other in “gcPBM binding intensity (ln)” value: 8.62 ± 0.52 for the first, 8.11 ± 0.24 for the second.

Compared with “CTACCTTTAATATATACACACACATAAAAAAAATAT [CACACA_site8548]”, “ATATATATATATAATAAACACACAAATAGATATAAC [CACACA_site9234]” is higher in “gcPBM binding intensity (ln)” value: 8.05 ± 0.28 for the first, 9.07 ± 0.38 for the second.

Compared with “TATATATATATATATACATGCATACATATACATACA [TGCATGCA_site897]”, “AGATAAGATATATACACACACATAAATACGTACAAA [CACACA_site6639]” is lower in “gcPBM binding intensity (ln)” value: 9.38 ± 0.37 for the first, 8.35 ± 0.16 for the second.

“ATTATATAGCTAAAAAAAATAAATTAAAAATATTAA [TGCATGCA_negctrl_site505]” and “ATATTTACAAGTAATAGTACAGTTAATTATATAAAA [XGTACX_site4856]” are within error of each other in “gcPBM binding intensity (ln)” value: 7.41 ± 0.46 for the first, 7.7 ± 0.54 for the second.

“AATGTACAAATACGTACACACATATTTATATTTATA [CACACA_site6833]” and “AAGAATGTTATTAGTACACACAATTATTATAGAAAT [CACACA_site7714]” are within error of each other in “gcPBM binding intensity (ln)” value: 8.09 ± 0.3 for the first, 7.96 ± 0.4 for the second.

“TAAAAATTGAAGCACACACACAAAAGAAATACAATA [CACACA_site1113]” and “TTTTTTTTTACTTGTTGTACTTTTTCAAGGTATTGT [XGTACX_site7778]” are within error of each other in “gcPBM binding intensity (ln)” value: 8.14 ± 0.41 for the first, 7.92 ± 0.65 for the second.

“ATATAAAAAAATTGCACACATAAATAAATACAGATA [CACACA_site4806]” and “TAATGTATTATATTTTGTTTTCTTCCACCAAAAAAA [XGTACX_negctrl_site64]” are within error of each other in “gcPBM binding intensity (ln)” value: 8.47 ± 0.2 for the first, 8.01 ± 0.47 for the second.

“AAAAAAAAAATTAAATGTACACACACCTTAAACAAT [XGTACX_site3848]” and “ATTTTCTTATATATATTTTGTATATATTTTGTACAT [CACACA_negctrl_site1496]” are within error of each other in “gcPBM binding intensity (ln)” value: 7.91 ± 0.41 for the first, 7.89 ± 0.71 for the second.

Going from “ACCCATATAATATATACACACATATATATATATATA [CACACA_site4731]” to “TTTATTTTTATTTAAAGTACATATCCATTTATTCCT [XGTACX_site1914]”, the “gcPBM binding intensity (ln)” value falls from 9.39 ± 0.36 to 7.71 ± 0.22.

Compared with “TACTTGTTATTAACATGTACAAAAAAAAAAAAAATT [XGTACX_site1338]”, AAACAATATTCTCAAGTGCAAAAAGAAAAAAGAAAT is higher in “gcPBM binding intensity (ln)” value: 7.64 ± 0.45 for the first, 10.3 ± 0.12 for the second.

Going from “AATGTACCCACACCCACACACAAACAAATATATATA [CACACA_site2751]” to ATAGGATGCATATGAGTGCATTCTGTGTTGTTATAA, the “gcPBM binding intensity (ln)” value rises from 8.46 ± 0.4 to 9.57 ± 0.19.

First: AGATTAAAATATATACGTACATATTATTAATTAATA [XGTACX_site3487]
Second: TCACCATATAAACGTGCACACTACAAAAATATATAA [CACACA_site5413]
The “gcPBM binding intensity (ln)” value of the first is lower: 7.73 ± 0.21 for the first, 11 ± 0.24 for the second.

“ATATAAATATTATAATGTACATATAATATATTTATT [XGTACX_site5212]” and “CTTTTATTTTATTTTAGTACGCAACATTCTCTATAT [XGTACX_site7279]” are within error of each other in “gcPBM binding intensity (ln)” value: 7.52 ± 0.3 for the first, 8.08 ± 0.55 for the second.

Compared with “TATTTATTTAAAAATTGTACGTAGGATTATACACTT [XGTACX_site286]”, TAAAATTTGTACATAGTGCAATTTTTTTTTTTTTTT is higher in “gcPBM binding intensity (ln)” value: 7.88 ± 0.55 for the first, 9.81 ± 0.099 for the second.

Going from “ATCTCTGTATGTTAGACACACATATTTTAATATGTT [CACACA_site4244]” to “ATATATTGCACTTTTTGTACATAATGAAAAATTTTT [XGTACX_site8223]”, the “gcPBM binding intensity (ln)” value rises from 7.64 ± 0.54 to 11.5 ± 1.

“ACCTTAATAAAAAAAAGTACAAACATGTTCAAATTG [XGTACX_site1556]” and “TACATATTGATATATACACACAAAAAAATAAATTCT [CACACA_site6198]” are within error of each other in “gcPBM binding intensity (ln)” value: 8.12 ± 0.12 for the first, 7.61 ± 0.54 for the second.

First: TTTTTTATAGTACATTACCAAAAAAAAAAAAAAAAA [GTGCAC_negctrl_site549]
Second: AATTCGTACCTCATTTGTACATATATATATATATAT [XGTACX_site5513]
The “gcPBM binding intensity (ln)” value of the first is lower: 8.13 ± 0.57 for the first, 9.42 ± 0.4 for the second.

“CATACACCCATACATACACACATACAGATATATATA [CACACA_site5123]” and “GTATTGCATGAGGACACACACAAAAAAAATATAGAT [CACACA_site6500]” are within error of each other in “gcPBM binding intensity (ln)” value: 8.17 ± 0.64 for the first, 8.28 ± 0.46 for the second.

Compared with “TATATATTTCATCCTTGTACACATTTGTGTTTACAT [XGTACX_site1132]”, “AATAAATAAATATATATATATATATATATATATATA [CACACA_negctrl_site365]” is higher in “gcPBM binding intensity (ln)” value: 7.84 ± 0.37 for the first, 9.21 ± 0.49 for the second.

“ACAATTTACACTTAAACACACAAAAAAAAGTTATAT [CACACA_site7056]” and “TATCAAAATTGTAATTGTACTTGTAAGTGGATATAT [XGTACX_site5949]” are within error of each other in “gcPBM binding intensity (ln)” value: 7.97 ± 0.65 for the first, 8.13 ± 0.16 for the second.

“TAGTTTTTTATATATTGTACAAATAATATATGATAT [XGTACX_site4220]” and “AGTGATTATTAATAATGTACATATCTATAAATATAT [XGTACX_site4734]” are within error of each other in “gcPBM binding intensity (ln)” value: 7.94 for the first, 7.75 ± 0.45 for the second.

“TTTTTTTTTTTTTTCTTACAATTTATTGAACAAATG [XGTACX_negctrl_site515]” and “TATATATTATAAAATTGTACATATATTAAATTTTTT [XGTACX_site5852]” are within error of each other in “gcPBM binding intensity (ln)” value: 7.93 ± 0.58 for the first, 7.45 ± 0.36 for the second.

“CAAAACAAAACGTATGCACACAATTAAAATATTAAA [CACACA_site5815]” and “AAATGTTGAGCAGTACAAAAAAAAAAAAAAAAAAAA [GTGCAC_negctrl_site518]” are within error of each other in “gcPBM binding intensity (ln)” value: 8.49 ± 0.34 for the first, 8.15 ± 0.74 for the second.

“AAGATACCAATGAAATGTACATATATATAAATATAA [XGTACX_site2135]” and “CATTTATATAAAAGAACACACATATAAAATATTATT [CACACA_site3601]” are within error of each other in “gcPBM binding intensity (ln)” value: 7.75 ± 0.6 for the first, 7.66 ± 0.52 for the second.

For “TTTTTTTTTTAATTGGGTACATATATAATTTAAGAA [XGTACX_site2732]”, the “gcPBM binding intensity (ln)” value was 7.92 ± 0.55.
